B1: LINE1-full (parent)
chain: UACGUAGGUGGUUUUCCCCUGAUAGUGCUAAGGGGGCCUGGAAGUUUGGACUGGGCAGAGCUCAACACAGCGUGGCAAAGUGGCUGUGGCUAGACUGCCUCUCUGGAUUCCUCGUCACUCAGCAGGGCAUCUCUGAGAGAAAUGCC

The source gives no read counts; variants with many changes may rest on few reads.

Variants of B1 are the subject of this data set. The data set can be described thus: self-cleavage, relative activity (ratio to wild type); higher = more cleavage; in vitro, sequencing; the parent is a self-cleaving ribozyme.
In the case of CACGUAGGUGGUUUUCCCCUGAUAGUGCUAAGGGGGCCUGGAAGUUUGGACUGGGCAGAGUUCAACACAGCGUGGCAAAGUGGCUGUGGCUAGACUGCCUCUCUGGAUUCCUCGUCACUCAGCAGGGCAUCUCUGAGAGAGAUGCC, the self-cleavage was 0.05.
The figure for CACAUAGGUGGUCUUCCCCUGAUAGUGCUAAGGGGGCCUGGAAGUUUGGACUGGGCAGAGCUCAACACAGCGUGGCAAAGUGGCUGUGGCUAGACUGCCUCUCUGGAUUCCUCGUCACUUAGCAGGGCAUCUCUGAGAGUAAUGCC is 1.3; for CACAUAGGUGGUUUUCCCCUGUUAGUGCUAAGGGGGCCUGGAAGUUCGGACUGGGCAGAGCUCAACACAGCGUGGCAAAGUGGCUGUGGCUAGACUGCCUCCCUGGAUUCCUCGUCACUCAGCAGGGCAUCUCUGAGAGAAAUGCC it is 1.53.
The figure for CACGUAGGUGGUUUUCCCCUGAUAGUGAUAAGGGGGCCUGGAAGUUCGGACUGGGCUGAGCUCAACACAGCGUGGCCAAGUGGCUGUGGCUAGACUGCCUCUCUGGAUUCCUCGUCACCCAGCAGGGCAUCUCUGAGAGAAAUGCC is 0; for CACGUAGGUGGUUUUCCCCUGAUAGUGCUAAGGGGGCCUGGAAGUUUGGACUGGGCAGAGCUCAACACAGCGUGGCAAAGUGGCUGUGGCUAGACUGCCUCUCUGGAUUCCUCGUCGCUCAGCAGGGCAUCUCUGAGAGAAACGCC it is 2.87; for CACGUAGGUGGUUUUCCUCUGAUAGUGCUAAGGGGGCCUGGAAGUUUGGACUGGGCAGAGCUCAACACAGCGUGGCAAAGUGGCAGUGGCUAGACUGCCUCUCUGGAUUCCUCGUCACUCAGCAGGGCAUCUCUGAGAGAAAUGCC it is 0.02.
The figure for CACGUAGGUAGUUUUCCCCUGAUAGUGCUAAGGGGGCCUGGAAGUUUGGACUGGGCAGAGCACAACACAGCGUGGCAAAGUGGCUGUGGCUAGACUGCCUCUCCGGAUUCCUCGUCACUCAGCAGGGCAUCUCUGAGAGAAAUGCC is 0.05; for CACGUAGGUGAUUUUCCCCUGAUAGUACUAAGGGGGCCUGGAAGUUUGGACUGGGCAGGGCUCAACACAGCAUGGCAAAGUGGCUGUGGCUAGACUGCCUCUCUGUAUUCCUCGUCACUCAGCAGGGCAUCUCUGAGAGAAAUGCC it is 0.03.
For CACGUAGGUGGUUUUCCCCUGAUAGUGCUAAGGGGGCCUGGAAGUUUGGACUGGGCAGAGCUCAACACAGCGUGGCAAAGUGGCUGUGGCUAGACUGCCUCUCUGGAUUCCUCGUCACUCAGCAGGGCAUCUCUGGGAGAAACGCC, the self-cleavage is 0.97.
CACGUAGAUGGUUUUCCCCUGAUAGUGCUAAGGGGGCCUGGAAGUUUGGACUGGGCAGAGCUCGACACAGCGAGGCAAAGUGGCUGUGGCUAGACUGCCUCUCUGGAUUCCUCGUCACUCAGCAGGGCAUCUCCGAAAGAAAUGCC: the self-cleavage amounted to 0.23.
Regarding CAUGUAGGUGGUUUUCCCCUGAUAGUGCUAAGGGGGCCUGGAAGUUUGGACUGGGCAGAGCUCAACACAGCGUGGCAAAGUGGCUGUGGCUAGUCUGCCUCUCUGGAUUCCUCGUCACCCAGCAGGGCAUCUCUGAGAGAAAUGCC, the self-cleavage worked out at 0.29.
The result for CAUGUAGGUGGUUUUCCCCUGAUAGUGCUAAGGGGGCCUGGAAGUUUGGACUGAGCAGAGCUCAACACAGCGUGGCAAAGUGGCUGUGGCUAGACUGCCUCUCUGGAUUCCUCGUCACUCAGCAGGGCAUCUCUGAGAGAAACGCC reads 0.49.
Turning to CACGUAGGUGGUUUUCCCUUGAUAGUGCUAAGGGGGCCUGGAAGUUUGGACUGGGCAGAGCUCAACUCAGCGUGGCAAAGUGGCUGUGGCUAGACUGCCUCUCUGGAUUCCCCGUCACUCAGCUGGGCAUCUCAGAGAGAAGUGCC, the self-cleavage turned out to be 0.05.
The figure for CACGUAGGUGGUUUUCCCCUGAUAGUGCUAAGCGGGCCUGGAAGUUUGGACCGGGCAGAGCUCAACACAGCGUGGCAAAGUGGCUGUGGCUAGACUGCCUCUCUGGAUUCCUCGUCACUCAGCAGGGCAUCUCUGAGAGAAAUGCC is 0.54.
The result for CACGUAGGUGGUUUUCCCCUGAUAGUGCUAAGGGGGCCUGGAAGUUUGGACUGGGCAGAGCUCAACACAGCGUGGCAAAGUGGCUGUGGCUAGACUGCCUCUCUGGAUUCCUCGUCUCUCAGCAGGGCGUCUCUGAGAGAAAUGCC reads 1.3; that for CACGUAGGUGGUUUUCUCCUGAUAGUGCUAAGGGGGCCUGGAAGUUUGGACUGGGCAGAGCUCAGCACAGCGUGGCAAAGUGGCUGUGGCUAGACUGCCUCUCUGGAUUCCUCGUCACUCAGCAGGGCAUCUCUGAGAGAAAUGCC, 0.15.
Take CACGUAGGUGGUUUUCCCCUGAUAGUGCUAAGGGGGCCUGGAAGUUUGGACUGGGCAGAGCUCAACACAGCGUGGCAUAGUGGCUGUGGCUAGACCGCCUCUCUGGAUUCCUCGUCACUCAGCAGGGCAUCUCUGAGGGAAAUGCC: the self-cleavage is 0.2.
The result for CACAUAGGUGGUUUUCCCCUGAUAGUGCUAAGGGGGCCUGGAAGUUUGGACUGGGCAGAGCUCAACACAGCGUGGCAAAGUGGCUGUGGCUAGACUGCCUCUCUGGAUUCCUCGUCACUCGGCAGGGCAUCUCUGAGAGAAAUGCC reads 0.52.
For the variant CACGUAGGUGGUUUUCCCCUGAUAGUGCUAAGGGGGCCUGGAAGUUUGGACUGGGCAGAGCUCAACACAGCGUGGCAAAGUGGGUGUGGCUAGACUGCCUCUCUGGAUUCCUCGUCACUCAGCGGGGCAUCUCAGAGAGAAAUGCC, the self-cleavage came out at 0.08.
The figure for CACGUAGGUGGUUUUCCCCUGAUAGUGCUAAGGGGGCCUGGAAGUUUGGACUGGGCAGAGCUCAACACAGCGUGGCAAUGUGGCUGUGGCAAGACUGCCUCUCUGGAUUCCACGUCACUCAGCAGGGCAUCUCUGAGGGAAAUGCC is 0.53; for CACGUAGGUGGUUUUCCCCUGAUAGUGCUAAGGGGGCCUGGAAGUUUGGACUGGGCAGAGCUCAACACAGCGUGGCAAAGUGGCUGUGGCUAGGCUGCCUCUCUGAAUUCCUCGUCACUCAGCAGGGCAUCUCUGAGAGAAAUGCC it is 0.05.
Turning to CACGUAGGUGGUUUUCCCCUGAUAGUGCUAAGGGGGUCUGGAAGUUAGGACUGGGCAGAACUCAACACAGCGUGGCAAAGUGGCUGUGGCUAGACUGCCUCUCCGGAUUCCUCGUCACUCAGCAGGGCAUCUCUGAGAGAAAUGCC, the self-cleavage was determined as 0.
The result for CACAUAGGUGGUUUUCCCCUGAUGGCGCUAUGGGGGCCUGGGAGUUUGGACUGGGCAGAGCUCAACACAGCGUGGCAAAGUGGCUGUGGCUAGACUGCCUCUCUGGAUUCCUCGUCACUCAGCAGGGCAUCUCUGAGAGAAAUGCC reads 0; that for CACGUAGGUGGUUUUCCCCUGAUAGUGCUAAGGGGGCCUGGAAGUUUGGACUGGGCAGAGCUCAACACAGCGUGGCAAAGUGGCUGUGGUUUGACUGCCUCUCUGGAUUCCUCGUCACUCAGCAGGGCAUCUCUGAGAGAAAUGCC, 0.07; that for CACGUAGGUGGUUUUCCCCUGAUAGUGCUAAGGGGGCCUGGAAGUUUGGACUGGGCAGAGCUCAACACAGCGUGGCUAAGUGGCUGUGACUAGACUGCCCCUCUGGAUUCCUCGUCACUCAGCGGGGCAUCUCUGAGAGAAAUGCC, 0.04.
The figure for CACGUAGGUGGUUUUCCCCUAAUAGUGCUAAGGGGGCCUGGAAGUUUGGAUUGGGCAGAGCUCAACACAGCGUGGCAAAGUGGCUGUGGCUAGACUGCCUCUCUGGAUCCCUCGUCACUCAGCAGGGCAUCCCUGAGAGAAAUGCC is 0.71; for CACGUAGGUGGUUUUCCCCUGAUAGUGCUAAGGGGGCCUGGAAGUUUGGACUGGGCAGAGCUCAACACAGCGUGGCAAAGUGGCUGUGGCUAGACUGCCUCUCUGGAUUCCUAGUCACUCAGCGGGGCAUCUCUGAGAGAAAUGCC it is 0.72; for CACGUAGGUGGUUUUCCCCUGAUAGUGCUAAGGGGGCCUGGAAGUUUGGACUGGGCAGAGCUCAACACAGCGUGGCAAAGUGGCUGUGGCUAGACUGCUUCUCUGGAUACCUCGUCACUCAGCAGGGCAUCUCUGAGAGAAUUGCC it is 0.36.
The figure for CACGUAGGUGGUUUUCCCCUGAUAGUGCUAAGGGGGCCUGGAAGUUUGGACUGGGCAGAGCUCAACACAGCGUGGCAAAGUGGCUGUGGCUAGGCUGCCUCUCUGGAUUCCUCGUCACUCAGCAGGGCAUCUCUGAGAGAAAAGCC is 0.14.
Regarding CACGUAGGUGGUUUUCCCCUAAUAGUGCUAAGGGGGCCUGGAAGUUUGGACUGGGCAGAGCUCAACACAGCGUGGCAAAGUGGCUGUAGCUAGACUGCCUCUCAGGAUUCCUCGUCACUCAGCAGGGCAUCUCUGAGAGAAAUGCC, the self-cleavage is 0.02.
The figure for CACGUAGGUGGUUUUCCCCUGAUAGUUCUAAGGGGGCCUGGAAGUUUGGACUGGGCAGAGCUCAACACAGCGUGGCUAAGUGGCUGUGGCUAGACUGCCCCUCUGGAUUCCUCGUCACUCAGCGGGGCAUCUCUGAGAGAAAUGCC is 0.24; for CACAUAGGUGGUUUUCCCCUAAUAGUGCUAAGGGGGCCUGGAAGUUUGGACUGGGCAGAGCUCAACACAGCGUGGCAAAGUGGCUGUGGCUAGACUGCCUCUCUGGAUUCCUCGUCGCUCAGCAGGGCAUCUCUGAGAGAAAUGCC it is 1.41; for CACGUAGGUGGUUUUCCCCUGAUAGUGCUAAGGGGGCCUGGAAGUUUGGACUGGGCAGAGCUCAACACAGCGUGGCGGAGUGGCUGUGGCUAGACUGCCUCUCUGAAUUCCUCGUCACUCAGCAGGGCACCUCUGAGAGAAAUGCC it is 0.51.
The figure for CACAUAGGUGGUUUUCCCCUGAUAGUGCUAAGGGGGCCUGGAGGUUUGGACUGGGCAGAGCUCAACACAGCGUGGCAAAGUGGCUGUGGCUAGACUGCCUCUCUGGAUUCCUCGUCACUCAGCAGGGCAUCUCUGAGAGAAAUGCC is 1.09; for CACGUAGGUGGUUUUCCCCUGAUAGUGCUAAGGGGGCCUGGAAGUUUGGACUGGGCAGAGCUCAACACAGCGUGGCAAAGUGGCUGUGGCUAGACUGCCUCUCUGGAUUCCUCGUCACUCAGCAGGGCUUCUCUGAGAGAAGUGCC it is 0.81; for CACGUAGGUGGUUUUCCCCUGAUAGUGCUAAGGGGGCCUGGAAGUUUGGACUGGGCAGAGCUCAACACAGCGUGGCAGAGUGGCUGUGGCUAGUCUGCCUCUCUGGAUUCCUCGUCCCUCAGCAGGGCAUCUCUGAGAGAAAUGCC it is 0.33.
The figure for CACGUAGGUGGUUUUCCCCUGAUAGUGCUAAGGGGGCCUGGAAGUUUGGACUGGGCAGAGCUCAACACAGCGUGGCUAAGUGGCUGUGGCCAGACUGCCUCUCUGGAUUCCUCGUCACUCAGCAGGGCAUCUCUGAGAGAAACGCC is 0.
Regarding CACGUAGGUGGUUUUCCCCUGAUAGUGCUAAGGGGGCCUGGAAGUUUGGACUGGGCAGAGCUCAACACAGCGUGGCAAAGUGGCUGUGGCUAGGCUGCCUCCCUGGAUUCCUCGUCACUCAGCAGGGCAUCUCUGAGAGAAAUGCC, the self-cleavage is 0.24.
The figure for CACGUAGGUGGUUUUCCCCUGAUAGUGCUAAGGGGGCCUGGAAGUUUGGACUGGGCAGAGCUCAACACAGCGUGGCAAAGUGGCUGUGGCUAGACUGCCUCUCUGGAUUCCUCGUCCCUCAGCAGGUCAUCUCUGAGAGAAAUGCC is 1.37.
